# In PubChem BioAssay (Tox21):
# The shares of active, inactive and inconclusive entries below differ from those in the screen. For some of these results: Potencies of inconclusive entries are left out as doubtful fits. The source made the active and inactive calls. The call rests on the fitted dose curve; in most records, active means well fitted curve in the direction sought with a large enough effect in the repeat runs; inconclusive means weak or mixed curves; inactive means no such curve, though single readings can be large; an effect the other way counts as inactive or inconclusive.
# Columns and labels:
# [1] = qHTS RealTime-Glo MT Cell Viability Assay in HepG2 cells - 40 hour (AID 1224870); further: potency means the concentration at half of the fitted maximal effect; nearly all actives have a fitted effect of over 50% in size
# Procedure, shortened: (§1)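 HepG2 cells (600/well) mixed with RealTime-Glo MT reagent, settled 5 h at 37 C/5% CO2 before compound addition. Nonlytic NanoLuc luminescence from viable-cell prosubstrate reduction read repeatedly during 40 h treatment at 37 C.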
# [2] = qHTS RealTime-Glo MT Cell Viability Assay in HEK293 cells - 16 hour (AID 1224872); further: potency means the concentration at half of the fitted maximal effect; nearly all actives have a fitted effect of over 50% in size
# Procedure, shortened: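 HEK293 cells were seeded at 600 cells/well together with NanoLuc luciferase and cell-permeant prosubstrate, preincubated 5 h at 37 C/5% CO2, then given compound in DMSO by pintool. Luminescence from viable-cell prosubstrate reduction was read repeatedly over 40 h.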
# [3] = qHTS RealTime-Glo MT Cell Viability Assay in HEK293 cells - 40 hour (AID 1224874); details: RealTime-Glo luminescence; max response: hits give low values; further: potency means the concentration at half of the fitted maximal effect; nearly all actives have a fitted effect of over 50% in size
# Procedure, shortened: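 Luminescence, which tracks viable cell number through reduction of the prosubstrate to a NanoLuc substrate, was read over continuous 37 C culture. Cells (600/well) were premixed with reagent and rested 5 h before 23 nL of compound in DMSO was pinned.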
# [4] = A CellTox Green Cytotoxicity Assay to monitor cytotoxicity in HepG2 cells - 16 hour (AID 1224876); further: nearly all actives have a fitted effect of over 45% in size; further: potency means the concentration at half of the fitted maximal effect
# Procedure, shortened: (§2)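 Real-time cytotoxicity: fluorescence of a cell-impermeant cyanine dye binding DNA of dead HepG2 cells, measured repeatedly (0–40 h) during compound exposure at 37 C. Cells seeded 600/well with reagent, dosed after 5 h.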
# [5] = qHTS RealTime-Glo MT Cell Viability Assay in HepG2 cells - 32 hour (AID 1224877); further: potency means the concentration at half of the fitted maximal effect; nearly all actives have a fitted effect of over 55% in size
# Procedure, shortened: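 HepG2 cells were seeded at 600 cells/well together with NanoLuc luciferase and a cell-permeant prosubstrate, preincubated 5 h at 37 C/5% CO2, then pin-dosed with compounds in DMSO. Nonlytic luminescence from viable cells was read at each time point.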
# [6] = A CellTox Green Cytotoxicity Assay to monitor cytotoxicity in HEK293 cells - 40 hour (AID 1224871); further: potency means the concentration at half of the fitted maximal effect; nearly all actives have a fitted effect of over 45% in size
# Procedure, shortened: (§3)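 Fluorescence from a DNA-binding dye excluded by viable cells was measured repeatedly in the same HEK293 wells (600 cells/well) during continuous compound exposure at 37 C. Each assay gives one read point: 0, 8, 16, 24, 32 or 40 h.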
# [7] = A CellTox Green Cytotoxicity Assay to monitor cytotoxicity in HEK293 cells - 24 hour (AID 1224875); further: potency means the concentration at half of the fitted maximal effect; nearly all actives have a fitted effect of over 45% in size
# Procedure, shortened: as §3
# [8] = A CellTox Green Cytotoxicity Assay to monitor cytotoxicity in HepG2 cells - 24 hour (AID 1224878); further: potency means the concentration at half of the fitted maximal effect; nearly all actives have a fitted effect of over 45% in size
# Procedure, shortened: as §2
# [9] = qHTS RealTime-Glo MT Cell Viability Assay in HepG2 cells - 8 hour (AID 1224873); further: nearly all actives have a fitted effect of over 55% in size
# Procedure, shortened: as §1
# Tags describe the fitted curve by direction and shape.
SMILES,Potency [1],Potency [2],Potency [3],Potency [4],Potency [5],Potency [6],Potency [7],Potency [8],Potency [9]
COC(=O)C1=C(C)NC(C)=C(C(=O)OC(C)C)C1c1cccc2nonc12 (stereo not given),"inconclusive [falling, partial curve]","inconclusive [cytotoxic, partial curve]",active: 16.9 µM,inactive,"inconclusive [cytotoxic, partial curve]",,,,
OC(CN1CCC(Cc2ccc(F)cc2)CC1)c1ccc(Cl)cc1 (stereo not given),"inconclusive [falling, single point]",active: 9.52 µM,,"inconclusive [activator, partial curve, poor fit]","inconclusive [cytotoxic, partial curve]",active: 21.3 µM,"inconclusive [activator, single point]",active: 21.3 µM,
CCOCN(C(=O)CS(=O)(=O)O)c1c(C)cccc1CC,"inconclusive [rising, partial curve, poor fit]",,,,,,,,inactive
CNCCCCOc1ccccc1Cc1ccccc1,"inconclusive [falling, single point]","inconclusive [cytotoxic, partial curve]",active: 23.9 µM,,"inconclusive [cytotoxic, single point]","inconclusive [activator, single point]","inconclusive [activator, single point]",,
COc1cc2c(N3CCN(C(=O)Nc4ccc(OC(C)C)cc4)CC3)ncnc2cc1OCCCN1CCCCC1,"inconclusive [falling, single point]","inconclusive [cytotoxic, partial curve]",active: 9.52 µM,,,"inconclusive [activator, partial curve, poor fit]",,"inconclusive [activator, partial curve, poor fit]",
